Assay results published in PubChem BioAssay (NCI).
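Cultured in 96-well plates, cells were exposed to test compound for 48 hours across five concentrations. Here, GI50 denotes the concentration required for 50% inhibition of growth. Definition used: TGI = concentration required for complete inhibition of growth.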

The molecules below were run on NCI-H322M lung (assay: growth of human tumour cells (NCI), 48 h).
In the case of CCOC(=N)CC(=O)Nc1ccccc1CC, the TGI is reported as > 100 µM.
In the case of O=C(Cc1nc2ccccc2s1)C(=O)Nc1cccc(C(F)(F)F)c1, the TGI is reported as > 100 µM.
CCOC(=O)c1c(SC(=O)c2ccc(Cl)cc2)n(-c2ccccc2)c(=S)n(-c2ccccc2)c1=O was tested, and the TGI was > 100 µM.
With C[C@]12CC[C@H](OC(=O)Nc3ccccc3)CC1=CC[C@@H]1C2CC[C@]2(C)/C(=N/OC(=O)Nc3ccccc3)CCC12 (stereo not given in full) the TGI was > 100 µM.
In the case of Cn1cnnc1Sc1c([N+](=O)[O-])nc(-c2ccc([N+](=O)[O-])cc2)n1C, the TGI is reported as > 100 µM.
For O=Cn1c2ccccc2c2ccccc21, the TGI was > 100 µM.
In the case of COc1ccc(C(=O)c2ccccc2)c(O)c1, the GI50 is reported as > 100 µM and the TGI is reported as > 100 µM.
For CCNC(=O)COc1ccc(Cl)c(C)c1, the TGI was > 100 µM.
COc1cc(/C=C2\N=C(c3ccccc3)N(c3cc4cc(Sc5ccccc5)ccc4[nH]3)C2=O)ccc1O was tested, and the TGI was > 50 µM.
